From patent US7592316B2, “Peptides as NS3-serine protease inhibitors of hepatitis C virus” (Schering Corporation, priority 2000, dated 2009)
*1 amine or outer side, *2 acyl side, *3 side chain or, on linkers, in order; H or OH if unused. Where a SMILES comes first, the peptide text is derived from it. [ ]: non-standard residue; d: D form. The star is where a group is joined. ξ: configuration not given here. ξ(3-Amino-2-oxopentanoyl) = CCC(N[*:1])C(=O)C(=O)[*:2]; ξPhg(3,5-(OMe)2) = COc1cc(OC)cc(C(N)C(=O)O)c1; ξPhg(2,3-(OMe)2) = COc1cccc(C(N)C(=O)O)c1OC; Diphenylacetyl = O=C(C(c1ccccc1)c1ccccc1)*; Cyclopentanecarbonyl = O=C(C1CCCC1)*; Isobutyloxycarbonyl = CC(C)COC(=O)*; Cyclopentylacetyl = O=C(CC1CCCC1)*; Hyp = O=C(O)[C@@H]1C[C@@H](O)CN1; X2 = CCCC(N[*:1])C(=O)C(=O)[*:2]; Aad = N[C@@H](CCCC(=O)O)C(=O)O; CH2CO2tBu = CC(C)(C)OC(=O)C*; Chg = N[C@H](C(=O)O)C1CCCCC1; Phg = N[C@H](C(=O)O)c1ccccc1; ξChg = NC(C(=O)O)C1CCCCC1; ξPhg = NC(C(=O)O)c1ccccc1; Carboxymethyl = O=C(O)C*; ξNle = CCCCC(N)C(=O)O; Bn = c1ccc(C*)cc1; OtBu = CC(C)(C)O*; tBu = CC(C)(C)*

Each molecule was assayed against HCV NS3/NS4A protease (strain 1a) (Hepatitis C virus genotype 1a, UniProt P27958) (assay: biochemical). Settings: Compounds prepared by Solid Phase Synthesis, Table 3; read-out: Ki* CLASS.
`CCCC(NC(=O)[C@@H]1C[C@@H](OC(C)(C)C)CN1C(=O)[C@@H](NC(=O)C1CCCC1)C1CCCCC1)C(=O)C(=O)NCC(=O)N[C@H](C(N)=O)c1ccccc1` (stereo partly drawn) (Cyclopentanecarbonyl-[Chg][Hyp](tBu)[X2]G[Phg]-NH2) showed a Ki of 101 to 1000 nM. `CCC(NC(=O)[C@@H]1C[C@@H](OC(C)(C)C)CN1C(=O)[C@@H](NC(=O)C1CCCC1)C1CCCCC1)C(=O)C(=O)NCC(=O)N[C@H](C(N)=O)c1ccccc1` (stereo partly drawn) (Cyclopentanecarbonyl-[Chg][Hyp](tBu)[ξ(3-Amino-2-oxopentanoyl)]G[Phg]-NH2) was tested, and the Ki was 101 to 1000 nM. In the case of `CCCCC(NC(=O)C(CCCC)NC(=O)CNC(=O)C(=O)C(CCC)NC(=O)[C@@H]1C[C@@H](OCc2ccccc2)CN1C(=O)C(NC(=O)C1CCCC1)C1CCCCC1)C(N)=O` (stereo partly drawn) (Cyclopentanecarbonyl-[ξChg][Hyp](Bn)[X2]G[ξNle][ξNle]-NH2), the Ki is reported as 101 to 1000 nM. For `CCCC(NC(=O)[C@@H]1C[C@@H](OCc2ccccc2)CN1C(=O)C(NC(=O)C1CCCC1)C1CCCCC1)C(=O)C(=O)NCC(=O)NC(C(=O)O)c1ccccc1` (stereo partly drawn) (Cyclopentanecarbonyl-[ξChg][Hyp](Bn)[X2]G[ξPhg]-OH), the Ki was 1 to 100 nM. For `CCCC(NC(=O)[C@@H]1C[C@@H](OC(C)(C)C)CN1C(=O)[C@@H](NC(=O)CC1CCCC1)C1CCCCC1)C(=O)C(=O)NCC(=O)N[C@H](C(N)=O)c1ccccc1` (stereo partly drawn) (Cyclopentylacetyl-[Chg][Hyp](tBu)[X2]G[Phg]-NH2), the Ki was 1 to 100 nM. For `CCC(NC(=O)[C@@H]1C[C@@H](OC(C)(C)C)CN1C(=O)[C@@H](NC(=O)CC1CCCC1)C1CCCCC1)C(=O)C(=O)NCC(=O)N[C@H](C(N)=O)c1ccccc1` (stereo partly drawn) (Cyclopentylacetyl-[Chg][Hyp](tBu)[ξ(3-Amino-2-oxopentanoyl)]G[Phg]-NH2), the Ki was 101 to 1000 nM. With `CCCC(NC(=O)[C@@H]1C[C@@H](OCc2ccccc2)CN1C(=O)C(NC(=O)CC1CCCC1)C1CCCCC1)C(=O)C(=O)NCC(=O)NC(C(N)=O)c1ccccc1` (stereo partly drawn) (Cyclopentylacetyl-[ξChg][Hyp](Bn)[X2]G[ξPhg]-NH2) the Ki was 101 to 1000 nM. Molecule `CCCCC(NC(=O)CNC(=O)C(=O)C(CCC)NC(=O)[C@@H]1C[C@@H](OCC(=O)OC(C)(C)C)CN1C(=O)C(NC(=O)CC1CCCC1)C1CCCCC1)C(N)=O` (stereo partly drawn) (Cyclopentylacetyl-[ξChg][Hyp](CH2CO2tBu)[X2]G[ξNle]-NH2) has a Ki greater than 1000 nM. Molecule `CCCCC(NC(=O)CNC(=O)C(=O)C(CCC)NC(=O)[C@@H]1C[C@@H](OCC(=O)O)CN1C(=O)C(NC(=O)CC1CCCC1)C1CCCCC1)C(N)=O` (stereo partly drawn) (Cyclopentylacetyl-[ξChg][Hyp](Carboxymethyl)[X2]G[ξNle]-NH2) has a Ki greater than 1000 nM. In the case of `CCCCC(NC(=O)CNC(=O)C(=O)C(CCC)NC(=O)[C@@H]1C[C@@H](OC(C)(C)C)CN1C(=O)C(NC(=O)CC1CCCC1)C1CCCCC1)C(N)=O` (stereo partly drawn) (Cyclopentylacetyl-[ξChg][Hyp](tBu)[X2]G[ξNle]-NH2), the Ki is reported as 101 to 1000 nM. With `CCCCC(NC(=O)CNC(=O)C(=O)C(CCC)NC(=O)[C@@H]1C[C@@H](OCc2ccccc2)CN1C(=O)C(NC(=O)C(c1ccccc1)c1ccccc1)C1CCCCC1)C(N)=O` (stereo partly drawn) (Diphenylacetyl-[ξChg][Hyp](Bn)[X2]G[ξNle]-NH2) the Ki was 101 to 1000 nM. Molecule `CCCC(NC(=O)[C@@H]1C[C@@H](OCc2ccccc2)CN1C(=O)[C@H](CCCC(=O)OC(C)(C)C)NC(=O)OCC(C)C)C(=O)C(=O)NCC(=O)N[C@H](C(N)=O)c1ccccc1` (stereo partly drawn) (Isobutyloxycarbonyl-[Aad](OtBu)[Hyp](Bn)[X2]G[Phg]-NH2) has a Ki greater than 1000 nM. In the case of `CCCC(NC(=O)[C@@H]1C[C@@H](OCc2ccccc2)CN1C(=O)[C@H](CCCC(=O)O)NC(=O)OCC(C)C)C(=O)C(=O)NCC(=O)N[C@H](C(N)=O)c1ccccc1` (stereo partly drawn) (Isobutyloxycarbonyl-[Aad][Hyp](Bn)[X2]G[Phg]-NH2), the Ki is reported as 101 to 1000 nM. Molecule `CCCC(NC(=O)[C@@H]1C[C@@H](OC(C)(C)C)CN1C(=O)[C@@H](NC(=O)OCC(C)C)C1CCCCC1)C(=O)C(=O)NCC(=O)N[C@@H](CCC(=O)OC(C)(C)C)C(N)=O` (stereo partly drawn) (Isobutyloxycarbonyl-[Chg][Hyp](tBu)[X2]GE(OtBu)-NH2) has a Ki greater than 1000 nM. `CCCC(NC(=O)[C@@H]1C[C@@H](OC(C)(C)C)CN1C(=O)[C@@H](NC(=O)OCC(C)C)C1CCCCC1)C(=O)C(=O)NCC(=O)N[C@@H](CCCC(=O)OC(C)(C)C)C(N)=O` (stereo partly drawn) (Isobutyloxycarbonyl-[Chg][Hyp](tBu)[X2]G[Aad](OtBu)-NH2) showed a Ki greater than 1000 nM. With `CCCC(NC(=O)[C@@H]1C[C@@H](OC(C)(C)C)CN1C(=O)[C@@H](NC(=O)OCC(C)C)C1CCCCC1)C(=O)C(=O)NCC(=O)N[C@H](CC(=O)OC(C)(C)C)C(N)=O` (stereo partly drawn) (Isobutyloxycarbonyl-[Chg][Hyp](tBu)[X2]G[dD](OtBu)-NH2) the Ki was greater than 1000 nM. For `CCCC(NC(=O)[C@@H]1C[C@@H](OC(C)(C)C)CN1C(=O)[C@@H](NC(=O)OCC(C)C)C1CCCCC1)C(=O)C(=O)NCC(=O)NC(C(N)=O)c1cccc(OC)c1OC` (stereo partly drawn) (Isobutyloxycarbonyl-[Chg][Hyp](tBu)[X2]G[ξPhg(2,3-(OMe)2)]-NH2), the Ki was 101 to 1000 nM. `CCCC(NC(=O)[C@@H]1C[C@@H](OC(C)(C)C)CN1C(=O)[C@@H](NC(=O)OCC(C)C)C1CCCCC1)C(=O)C(=O)NCC(=O)NC(C(N)=O)c1cc(OC)cc(OC)c1` (stereo partly drawn) (Isobutyloxycarbonyl-[Chg][Hyp](tBu)[X2]G[ξPhg(3,5-(OMe)2)]-NH2) was tested, and the Ki was 101 to 1000 nM.
